From publication PMC2830818 (The Journal of neuroscience : the official journal of the …, 2010)

Tests used:
Assay in all cases: co-IP
[1] = target: T1, recombinant wild-type FKBP51 (UniProt Q13451 1-457)
T1 sequence (looked up): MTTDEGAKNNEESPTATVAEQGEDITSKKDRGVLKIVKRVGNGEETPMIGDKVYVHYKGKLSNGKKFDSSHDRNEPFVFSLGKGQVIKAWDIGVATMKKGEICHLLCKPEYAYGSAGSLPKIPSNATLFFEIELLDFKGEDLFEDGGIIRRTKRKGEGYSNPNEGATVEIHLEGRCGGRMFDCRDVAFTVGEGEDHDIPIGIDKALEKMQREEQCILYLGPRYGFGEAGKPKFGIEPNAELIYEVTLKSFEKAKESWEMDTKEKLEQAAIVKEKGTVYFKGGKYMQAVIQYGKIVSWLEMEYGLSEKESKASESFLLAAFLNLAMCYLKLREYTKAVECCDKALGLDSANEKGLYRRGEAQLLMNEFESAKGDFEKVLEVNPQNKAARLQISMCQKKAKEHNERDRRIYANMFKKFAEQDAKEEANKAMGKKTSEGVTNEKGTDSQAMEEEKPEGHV

recombinant FKBP51 W90A = target: T2, recombinant FKBP51 W90A (UniProt Q13451 1-457, W90A)
T2 sequence (looked up): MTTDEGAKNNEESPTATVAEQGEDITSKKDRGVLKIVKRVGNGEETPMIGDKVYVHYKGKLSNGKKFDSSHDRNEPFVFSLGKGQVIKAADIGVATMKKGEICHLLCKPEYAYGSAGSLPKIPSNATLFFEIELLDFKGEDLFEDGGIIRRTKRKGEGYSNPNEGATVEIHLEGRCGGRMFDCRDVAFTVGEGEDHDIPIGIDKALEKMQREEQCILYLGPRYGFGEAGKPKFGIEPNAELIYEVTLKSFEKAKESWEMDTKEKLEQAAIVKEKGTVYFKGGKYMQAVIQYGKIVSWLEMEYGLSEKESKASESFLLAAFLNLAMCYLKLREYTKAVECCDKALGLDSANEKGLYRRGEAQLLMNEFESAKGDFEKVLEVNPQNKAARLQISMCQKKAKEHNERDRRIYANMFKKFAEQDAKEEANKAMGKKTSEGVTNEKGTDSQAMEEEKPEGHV

recombinant FKBP51 F130A = target: T3, recombinant FKBP51 F130A (UniProt Q13451 1-457, F130A)
T3 sequence (looked up): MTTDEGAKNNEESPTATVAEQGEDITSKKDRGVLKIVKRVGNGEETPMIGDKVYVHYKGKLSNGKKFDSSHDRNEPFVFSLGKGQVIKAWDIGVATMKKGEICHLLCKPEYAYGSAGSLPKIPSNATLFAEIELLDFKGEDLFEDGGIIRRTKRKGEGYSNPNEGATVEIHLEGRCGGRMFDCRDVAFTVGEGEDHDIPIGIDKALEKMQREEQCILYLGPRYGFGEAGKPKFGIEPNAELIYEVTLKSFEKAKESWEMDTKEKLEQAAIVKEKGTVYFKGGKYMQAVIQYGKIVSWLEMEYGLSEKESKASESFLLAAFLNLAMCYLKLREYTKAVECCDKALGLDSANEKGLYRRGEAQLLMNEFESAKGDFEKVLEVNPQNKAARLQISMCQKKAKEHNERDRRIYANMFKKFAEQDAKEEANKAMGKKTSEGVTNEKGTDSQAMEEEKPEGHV

Measured: binding result

B1: recombinant wildtype 4R0N tau (natural protein)
chain: not shown
binds: all assays above
